# Experimental data from PubChem BioAssay AID624417 (National Center for Advancing Translational Sciences (NCATS), 2012).
# The whole screen tested about 410,000 compounds, of which about 6,400 (1.6%) were called active. The shares of active, inactive and inconclusive entries below differ from those in the screen. The call rests on the fitted dose curve; in most records, active means well fitted inhibition curve with a large enough effect; inconclusive means small, poorly fitted or top-dose-only effect; inactive means no such curve, though single readings can be large or run the other way. Potencies of inconclusive entries are left out as doubtful fits.
# Target: Glucagon-like peptide 1 receptor (Homo sapiens) (UniProt P43220)
# Assay: qHTS of GLP-1 Receptor Inverse Agonists (Inhibition Mode); further: nearly all actives have a fitted effect of over 55% in size
# Conditions: HEK293 GLP-1R CRE-luciferase, luminescence, 24 h, GLP-1R form is constitutively active; activity change, negative = inhibition: at 38.3 µM (top of the series) unless noted
# How it was run: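 Readout was luciferase luminescence, measured 12 min after detection reagent at room temperature. Beforehand, GLP-1R reporter HEK293 cells had sat 12 h, then received compounds for 24 hr at 37 deg C.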
# On the % scale 0 is the no-effect control and ±100 the full control effect; potency means the concentration at half of the fitted maximal effect; tags describe the fitted curve by direction and shape.
# UniProt P43220, sequence (P43220 whole entry, looked up): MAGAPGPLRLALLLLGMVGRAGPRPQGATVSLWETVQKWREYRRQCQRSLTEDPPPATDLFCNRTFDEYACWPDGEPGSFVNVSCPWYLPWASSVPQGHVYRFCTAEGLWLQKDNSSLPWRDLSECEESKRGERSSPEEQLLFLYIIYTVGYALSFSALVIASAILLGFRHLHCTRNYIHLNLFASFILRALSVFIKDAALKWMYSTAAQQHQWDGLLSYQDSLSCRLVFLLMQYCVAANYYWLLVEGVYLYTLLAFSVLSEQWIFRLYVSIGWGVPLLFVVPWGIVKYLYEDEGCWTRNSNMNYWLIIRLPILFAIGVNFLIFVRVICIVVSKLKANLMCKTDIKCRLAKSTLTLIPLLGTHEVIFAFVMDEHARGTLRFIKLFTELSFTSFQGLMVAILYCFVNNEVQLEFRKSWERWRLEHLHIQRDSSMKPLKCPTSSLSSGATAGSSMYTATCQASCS
SMILES,"activity change, negative = inhibition",Potency
COc1ccc(Cl)cc1NC(=O)CSc1nnc2[nH]c(=O)cc(-c3ccccc3)n12,inactive: 10.1%,–
COc1cccc(CNCc2cccc(OC)c2O)c1O,–,"inconclusive [inhibitor, single point]"
O=C(Nc1cccc(-c2cscn2)c1)C1CCN(Cc2ccsc2)CC1,–,"inconclusive [inhibitor, partial curve, poor fit]"
CCN(CC)CCCn1c2c(c(SCC(=O)N3CCc4ccccc43)nc1=O)CCC2,–,"inconclusive [inhibitor, partial curve]"
CCn1c(NCc2cc(Br)ccc2NS(=O)(=O)c2ccc(C)cc2)nc2ccccc21,–,active: 11.2 µM
C=CCN(CC=C)S(=O)(=O)c1ccc(C(=O)Nc2nnc(CSC)o2)cc1,–,"inconclusive [inhibitor, single point]"
Cc1cc(C(=O)Nc2c(F)c(F)c(F)c(F)c2F)n(-c2ccccc2)n1,–,"inconclusive [inhibitor, partial curve, poor fit]"
COc1ccc(NC(=O)C2=NN(c3ccccc3)C(=O)CC2)cn1,inactive: 1.46%,–
CCOc1cc(S(=O)(=O)N2CCN(Cc3ccccc3)CC2)ccc1Br,–,"inconclusive [inhibitor, single point]"
Cc1ccc(OCc2nc(C#N)c(NCCc3ccccc3)o2)cc1,–,"inconclusive [inhibitor, single point]"
O=C(Cc1ccc(Br)cc1)Nc1cccc(Cl)c1,–,"inconclusive [inhibitor, partial curve, poor fit]"
CC1CCCCN1CCNC(=O)C1CCN(S(=O)(=O)c2cccc3cccnc23)CC1 (stereo not given),inactive: 8.79%,–
c1ccc(CCNc2nc(-c3ccccn3)cs2)cc1,–,"inconclusive [inhibitor, single point]"
O=C(CN1CCCC1)NN=C(c1ccccc1)c1ccccc1,–,"inconclusive [inhibitor, single point]"
COc1cccc(CNC(=O)CSc2nc(=O)n(Cc3ccncc3)c3c2CCC3)c1,inactive: -4.45%,–
C=CCc1ccccc1OCC(=O)N/N=C/c1ccc(OC(C)=O)cc1OC(C)=O,–,"inconclusive [inhibitor, partial curve, poor fit]"
CCc1cccc(NC(=O)c2cc3c(s2)-c2ccccc2OC3)c1,–,"inconclusive [inhibitor, single point]"
Cc1cc(C)c(NC(=O)C(=O)NCC(c2cccnc2)N2CCN(c3ccccc3F)CC2)c(C)c1 (stereo not given),inactive: 9.26%,–
O=C(NCCN1CCOCC1)c1ccc(Cl)c(S(=O)(=O)N2CCCCCC2)c1,–,"inconclusive [inhibitor, single point]"
O=C(CN1C(=O)c2cccc3cccc1c23)Nc1cccc(F)c1,–,"inconclusive [inhibitor, partial curve, poor fit]"
O=C(COC(=O)CN1C(=O)C2CCCCC2C1=O)Nc1c(Cl)cccc1Cl (stereo not given),inactive: 11.6%,–
N#CC1(c2ccccc2)CCN(S(=O)(=O)c2ccc(OC(F)(F)F)cc2)CC1,–,active: 10 µM

SMILES,"activity change, negative = inhibition",Potency
CCOc1ccc2nc(NC(=S)N(C)C)sc2c1,–,"inconclusive [inhibitor, partial curve, poor fit]"
CCCSc1nc2sc3c(c2c(=O)n1CC)CC(C)(C)OC3,–,active: 10 µM
CCc1ccc(N2CC(C(=O)Nc3ccc(S(=O)(=O)N4CCOCC4)cc3)CC2=O)cc1 (stereo not given),–,"inconclusive [inhibitor, single point]"
N#Cc1ccccc1OCC(=O)Nc1cccc(S(=O)(=O)N2CCCCCC2)c1,–,"inconclusive [inhibitor, single point]"
CC(C)(C)n1nnnc1C(c1cccnc1)N(Cc1ccccc1)Cc1cccs1 (stereo not given),–,"inconclusive [inhibitor, partial curve, poor fit]"
COc1cccc(/C(O)=C2/C(=O)C(=O)N(c3cc(C)on3)C2c2cccs2)c1 (stereo not given),–,"inconclusive [inhibitor, single point]"
Cc1ccc(C2(c3ccc(C)cc3)CC2C(=O)NCc2cccnc2)cc1 (stereo not given),–,"inconclusive [inhibitor, single point]"
CC1(C)C(=O)N(c2ccccc2)C1c1ccccc1O (stereo not given),–,"inconclusive [inhibitor, partial curve, poor fit]"
O=C(NCCc1ccccn1)c1cc2ccccc2o1,inactive: 0.571%,–
O=C(Nc1ccc2ccccc2c1)c1cccc(F)c1,–,"inconclusive [inhibitor, single point]"
C/C(=N\NC(=O)COc1ccc(C(C)(C)C)cc1)c1ccc2c(c1)OCCO2,inactive: -21.1%,–
CN(CC(=O)Nc1ccc(Br)cc1)S(=O)(=O)c1cccc2nsnc12,–,"inconclusive [inhibitor, single point]"
COc1ccc(NC(=O)C2CCN(C(=O)c3sc4nc[nH]c(=O)c4c3C)CC2)cc1Cl,inactive: -3.47%,–
CCC(c1nnnn1C1CCCC1)N(Cc1cccs1)Cc1cc2cc(C)ccc2[nH]c1=O (stereo not given),–,"inconclusive [inhibitor, single point]"
O=C(CCSc1ccccn1)Nc1ccc(Br)cc1,–,"inconclusive [inhibitor, single point]"
Cc1ccc(OCC(O)CNCc2ccccc2)cc1C (stereo not given),–,"inconclusive [inhibitor, single point]"
C/C(=N\N1CCN(Cc2ccccc2Cl)CC1)c1ccc([N+](=O)[O-])cc1,–,"inconclusive [inhibitor, partial curve, poor fit]"
Cc1ccc(Cn2c(C3CCCN3c3nc(-c4ccc(F)cc4)cs3)nc3cc(Cl)c(Cl)cc32)cc1 (stereo not given),inactive: -15.4%,–
S=c1[nH]nc(CN2CCCCC2)n1Cc1ccccc1,–,"inconclusive [inhibitor, partial curve]"
CCc1cccc(C)c1Nc1c(-c2cccc(O)c2)nc2sccn12,–,"inconclusive [inhibitor, single point]"
O=C(Nc1cccc(S(=O)(=O)N2CCCCCC2)c1)c1ccc2c(c1)OCO2,–,"inconclusive [inhibitor, partial curve, poor fit]"
Cc1cc2c(c(/C=C/C(=O)c3ccccc3)c1)OC1(C=C2)Oc2ccccc2C(=O)N1C (stereo not given),–,"inconclusive [inhibitor, single point]"

SMILES,"activity change, negative = inhibition",Potency
Cc1ccc(-c2cc(C(=O)NCCCn3ccnc3)c3cc(Br)ccc3n2)o1,inactive: 3.42%,–
Cc1[nH]c2ccccc2c1C1(O)C(=O)N(Cc2ccc(Cl)cc2)c2ccccc21 (stereo not given),–,"inconclusive [inhibitor, partial curve, poor fit]"
CCNC(=O)Oc1ccc[nH]c1=O,–,"inconclusive [inhibitor, partial curve, poor fit]"
CC(C)c1ccc(C(=O)Nc2ccc(S(=O)(=O)NC3=NCCCCC3)cc2)cc1,–,"inconclusive [inhibitor, single point]"
O=S(=O)(c1cccc(Cl)c1)c1nnn2c1nc(NC1CCCC1)c1sccc12,inactive: 12.5%,–
Cc1cccc(C(=O)NC(NCc2ccco2)C(Cl)(Cl)Cl)c1 (stereo not given),–,"inconclusive [inhibitor, partial curve, poor fit]"
CCC(=O)Nc1ccccc1C(=O)OC(c1ccccc1)c1ccccc1,–,"inconclusive [inhibitor, single point]"
N#Cc1c(-c2cccs2)nc(SCc2ccc(Cl)cc2)[nH]c1=O,–,"inconclusive [inhibitor, partial curve]"
CCc1nnc2n1N(C(C)=O)C(c1ccc(C(C)(C)C)cc1)=C(C(C)=O)S2,–,"inconclusive [inhibitor, partial curve, poor fit]"
CC1(C)Cc2c(c(=S)nc(-c3ccccc3)n2CCN2CCOCC2)CO1,inactive: 2.24%,–
Cc1cccc(NC(=O)c2nc[nH]c2C(=O)N[C@@H](C)C(=O)OC(C)(C)C)c1,–,"inconclusive [inhibitor, single point]"
O=C(COC(=O)CC1c2ccccc2CCN1S(=O)(=O)c1ccccc1)Nc1ccccc1 (stereo not given),–,"inconclusive [inhibitor, single point]"
COc1ccc(CN2CCCC(C(=O)c3ccc4c(c3)OCO4)C2)c(F)c1 (stereo not given),–,"inconclusive [inhibitor, partial curve, poor fit]"
CCOC(=O)c1ccc(N=C2SC(C(=O)Nc3ccc(C(=O)O)cc3)CC(=O)N2Cc2cccs2)cc1 (stereo not given),–,"inconclusive [inhibitor, partial curve, poor fit]"
C[C@H](CO)N1C[C@H](C)[C@@H](CN(C)Cc2ccccc2)Oc2c(NC(=O)C3CCCCC3)cccc2C1=O,–,"inconclusive [inhibitor, single point]"
Cc1ccc(O)c(NC(=O)c2nc3nc(C)cc(C(F)F)n3n2)c1,inactive: 26.4%,–
COCCn1c(SCC(=O)c2c[nH]c3ccccc23)nc2cc(C(=O)NCC(C)C)ccc2c1=O,inactive: 7.76%,–
OC(CCN1CCOCC1)(c1ccc(Cl)cc1)C1CCCCC1 (stereo not given),–,"inconclusive [inhibitor, partial curve, poor fit]"
COc1cccc(N2CCN(C(=O)c3nc(-c4ccc(Cl)cc4)n4c3CCCCC4)CC2)c1,–,"inconclusive [inhibitor, partial curve, poor fit]"
CN(CCCC1CCCC1)C(=O)c1cc(COc2ccc(F)c(F)c2)on1,–,"inconclusive [inhibitor, partial curve, poor fit]"
Cc1[nH]c2c(C)cccc2c1CCNC(=O)c1cc2ccccc2oc1=O,inactive: 2.74%,–
